Some of the results follow. The full chains were built here from the parent and the listed change. Inactive controls read about 0.05.
B1: TEV protease; numbered along this chain (parent)
chain: MGESLFKGPRDYNPISSSICHLTNESDGHTTSLYGIGFGPFIITNKHLFRRNNGTLVVQSLHGVFKVKDTTTLQQHLVDGRDMIIIRMPKDFPPFPQKLKFREPQREERICLVTTNFQTKSMSSMVSDTSCTFPSGDGIFWKHWIQTKDGQCGSPLVSTRDGFIVGIHSASNFTNTNNYFTSVPKNFMELLTNQEAQQWVSGWRLNADSVLWGGHKVFMVKPEEPFQPVKEATQL

Variants of: B1
Experiment: raw area under fraction-flipped curve 0-4 h after induction (AUC4h, not background-subtracted), DNA-recorder readout of cleavage of the substrate (dimensionless); higher = more cleavage of the substrate by the protease variant
Details: temperature: 34 °C; time window: 0-4 h after rhamnose induction
Protocol: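 In vivo DNA recorder in E. coli TOP10(DE3) ΔrhaA at 34 °C. Each TEVp single-site mutant (parent TEVp 0) is paired with a single-site variant of the 7-mer TEVs (canonical ENLYFQ|S). The substrate sits between flexible linkers in a Bxb1-sfGFP-TEVs-SsrA fusion, so cleavage stabilises Bxb1 and speeds flipping of a recombination array, read by NGS. The value is the raw area under the fraction-flipped curve over 0-4 h after rhamnose induction (AUC4h), with ≥20 reads per time point. It is not background-subtracted; inactive controls average about 0.047.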
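Further: Bxb1 expression induced with 0.2% (w/v) L-rhamnose at OD600 near 0.5, cultures sampled hourly, flipped fraction per protease–substrate barcode pair counted by paired-end Illumina sequencing.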

| Variant | area with substrate ENLYFAS | area with substrate ENLYFCS | area with substrate ENLYFFS | area with substrate ENLYFGS | area with substrate ENLYFIS | area with substrate ENLYFKS | area with substrate ENLYFNS | area with substrate ENLYFPS | area with substrate ENLYFRS | area with substrate ENLYFVS | area with substrate ENLYFES | area with substrate ENLYFLS | area with substrate ENLYFMS | area with substrate ENLYFSS | area with substrate ENLYFTS | area with substrate ENLYFWS | area with substrate ENLYFYS | area with substrate ENLYFDS | area with substrate ENLYFHS |
| --- | --- | --- | --- | --- | --- | --- | --- | --- | --- | --- | --- | --- | --- | --- | --- | --- | --- | --- | --- |
| V58F | 0.0642 | 0.0351 | 0.0625 | 0.0563 | 0.061 | 0.0478 | 0.0599 | 0.0565 | 0.0561 | 0.0524 |  |  |  |  |  |  |  |  |  |
| T31D | 0.0621 | 0.06 | 0.0699 |  | 0.0572 | 0.0575 | 0.0499 | 0.0617 |  |  | 0.0628 | 0.0619 | 0.0649 | 0.0571 | 0.0495 | 0.0536 | 0.0585 |  |  |
| T31N | 0.0704 | 0.0689 | 0.0656 | 0.0559 | 0.0511 | 0.0602 | 0.0691 | 0.0627 |  | 0.0562 | 0.0416 | 0.0582 | 0.0694 | 0.0558 | 0.0577 | 0.0505 | 0.0648 | 0.063 | 0.0643 |
| T31S | 0.0587 | 0.05 | 0.0599 | 0.0458 | 0.0491 | 0.0692 | 0.0589 | 0.0587 | 0.0539 | 0.0929 | 0.0673 | 0.057 | 0.0787 |  |  | 0.0528 | 0.0502 | 0.0542 |  |
| H47M | 0.0306 | 0.0542 | 0.0659 |  | 0.0512 | 0.0602 | 0.06 | 0.0598 | 0.0512 | 0.0474 | 0.0548 | 0.0706 | 0.0483 | 0.0565 | 0.0598 | 0.0592 | 0.0551 |  | 0.0592 |
| H47P | 0.0399 |  | 0.077 |  | 0.0764 | 0.0628 | 0.0488 | 0.0644 |  |  |  | 0.0705 | 0.0722 | 0.0556 | 0.0502 | 0.047 |  |  |  |
| D69T | 0.0461 | 0.0532 |  | 0.0646 | 0.0538 | 0.0554 | 0.0709 | 0.0543 | 0.0585 | 0.0443 |  | 0.0549 | 0.0579 | 0.0548 | 0.0462 | 0.0584 |  | 0.0529 |  |
| G35W | 0.0513 |  | 0.0462 |  | 0.0538 |  | 0.0547 | 0.0435 | 0.0586 |  | 0.0416 |  | 0.0472 |  |  | 0.0483 | 0.0441 | 0.0483 |  |
| R51F | 0.0796 | 0.0622 | 0.0692 | 0.0635 | 0.0613 |  | 0.0575 | 0.0465 |  | 0.0492 | 0.0904 |  | 0.0722 |  |  | 0.0441 |  |  | 0.0588 |
| L33G | 0.0694 |  | 0.0677 |  | 0.0607 | 0.0614 |  | 0.0602 |  |  | 0.0764 |  | 0.0603 | 0.0544 |  | 0.0613 | 0.0577 | 0.0604 | 0.0411 |
| L33W | 0.0619 | 0.0531 | 0.0677 | 0.0725 | 0.0622 | 0.0493 | 0.0533 | 0.0644 | 0.0711 | 0.0533 | 0.0619 | 0.0566 | 0.0609 | 0.0607 | 0.0521 | 0.0644 | 0.0474 |  | 0.0546 |
| F65M | 0.0523 | 0.0572 | 0.0608 |  | 0.0521 | 0.11 | 0.0647 | 0.0693 | 0.0676 | 0.066 | 0.0617 |  | 0.0623 |  |  | 0.0711 |  | 0.0652 | 0.0697 |
| T23V | 0.0481 | 0.0532 | 0.0683 |  | 0.0502 | 0.0595 | 0.063 | 0.0568 | 0.0658 | 0.056 | 0.0661 | 0.0587 | 0.075 | 0.0699 | 0.0623 | 0.06 |  | 0.0529 | 0.068 |
| T44G | 0.0503 |  | 0.0689 |  | 0.0537 | 0.0428 | 0.0609 | 0.0523 | 0.0548 | 0.0506 |  | 0.0955 | 0.0564 | 0.0591 | 0.0579 |  | 0.0691 |  | 0.0298 |
| T44H | 0.0377 |  | 0.0567 | 0.0415 | 0.039 | 0.039 | 0.0519 |  | 0.0393 | 0.0545 | 0.0483 |  | 0.053 | 0.0567 | 0.0417 |  | 0.0481 | 0.0311 |  |
| T44E | 0.0329 |  | 0.0374 |  | 0.0428 |  | 0.0288 | 0.0407 | 0.0379 |  | 0.0506 | 0.048 | 0.0379 |  |  | 0.036 |  |  |  |
| N45R | 0.057 | 0.0534 | 0.0629 | 0.0663 | 0.0582 | 0.0498 |  | 0.0634 | 0.0539 | 0.054 | 0.0787 |  | 0.0641 |  | 0.0604 | 0.0721 | 0.0544 | 0.057 |  |
| N45C | 0.0594 | 0.0631 | 0.0764 |  | 0.0507 |  | 0.0675 | 0.0689 | 0.0478 |  | 0.0599 | 0.0654 | 0.0637 |  | 0.062 | 0.0713 |  | 0.0511 | 0.0654 |
| G54S | 0.0674 | 0.0441 | 0.0641 |  | 0.0442 | 0.0674 | 0.0747 | 0.0593 | 0.0556 | 0.0465 | 0.0611 | 0.0539 | 0.0631 | 0.024 | 0.0524 |  |  | 0.0617 |  |
| H29K | 0.06 |  | 0.0695 |  | 0.0519 |  | 0.0644 | 0.0635 | 0.0623 |  |  |  | 0.0433 |  | 0.0558 |  | 0.0355 | 0.0537 |  |
| H29S | 0.0661 | 0.0649 | 0.0677 |  | 0.0574 | 0.0337 | 0.0641 | 0.0575 | 0.0641 | 0.0602 | 0.0627 |  | 0.0646 |  | 0.0298 | 0.05 |  |  |  |
| H29V | 0.0512 |  | 0.0766 | 0.0632 |  |  | 0.0585 | 0.0712 | 0.0661 | 0.0517 | 0.0715 | 0.0619 | 0.0628 | 0.0488 | 0.0768 |  | 0.0555 | 0.02 | 0.0515 |
| R50E | 0.0661 | 0.0621 | 0.0633 | 0.0551 | 0.0474 | 0.0818 | 0.0465 | 0.062 |  | 0.0566 | 0.0764 | 0.0517 | 0.0659 |  | 0.0587 | 0.0506 | 0.0486 |  | 0.077 |
| G39C | 0.0427 | 0.0375 | 0.0461 | 0.0399 | 0.0419 | 0.0479 | 0.0457 | 0.0502 | 0.0183 |  | 0.0376 | 0.0457 | 0.0476 | 0.0438 | 0.0488 | 0.0465 | 0.0417 | 0.0418 |  |
| G39N | 0.0515 | 0.0415 | 0.0374 |  | 0.0359 | 0.0412 | 0.0336 | 0.0389 |  | 0.0205 | 0.037 | 0.0257 | 0.0566 |  | 0.0197 | 0.0335 | 0.0333 |  |  |

Source: the supplement of paper PMC12217912
